In ChEMBL document CHEMBL4888484, “Replenishing the malaria drug discovery pipeline: Screening and hit evaluation of the MMV Hit Generation Library 1 (HGL1) against asexual blood stage Plasmodium falciparum ,using a nano luciferase reporter read-out” (2022):
About 540 (0.36%) of roughly 150,000 compounds showed an effect of 50% or more. The list shows a part of the results.

The compounds below were run on Plasmodium falciparum (assay: Primary screen in NF54 nanoGlo assay, in single point, at 2uM, 72h; a lower Z score goes with more inhibition). Details: timepoint 72 hour.
Type: functional, Erythrocyte

| Compound | % Inhibition | Z score |
| --- | --- | --- |
| O=S(=O)(NCC[C@H]1CCCO1)c1ccccc1 | 1% | -0.24 |
| Cn1nccc1C(=O)N1CCC(Cc2ccc(COc3cccnc3)cc2)CC1 | -19% | 3.67 |
| O=C(O)[C@@H]1CCCN1C(=O)CC1CCC(C(F)(F)F)CC1 (stereo partly drawn) | -13% | 1.51 |
| CN1C(=O)C(C)(C)c2cc(S(=O)(=O)N3CCC[C@H](C(=O)NCc4ccccc4Cl)C3)ccc21 | -12% | 1.13 |
| CN1CCN(c2ccccc2NC(=O)N2CCn3c(n[nH]c3=O)C2)CC1 | -3% | 0.46 |
| Cc1nc2cc(N(C)C(=O)c3ccccc3Cl)ccc2[nH]1 | -8% | 1.31 |
| COc1ccc(CN2CCN(C)CC23CCCCC3)c(OC)c1 | 14% | -1.83 |
| O=C(CN1CCOC1=O)N1CCC(CCC(=O)N2CCc3ccccc3C2)CC1 | -5% | 0.95 |
| O=C(Nc1nncs1)[C@@H]1CC=CCC1 | -51% | 5.97 |
| CCS(=O)(=O)N1CCC[C@H](n2c(C)cnc2C2CCOCC2)C1 | -23% | 2.92 |
| Cc1noc(C)c1NC(=O)CC[C@H]1CCCO1 | -34% | 4 |
| CN1CCN(C(=O)c2ccc3c(c2)N(Cc2ccc(F)cc2)C(=O)CO3)CC1 | 1% | -0.2 |
| COCCN(CCC(=O)N1CCOCC1)C(=O)c1cc(-c2ccccc2OC)on1 | 9% | -1.09 |
| CC(=O)Nc1ccc(-n2ccnc2-c2c(C)ccc3ncccc23)cc1 | 1% | -0.14 |
| Cc1nn2c(Nc3ccc(Cl)cc3)nc3ccccc3c2nc1=O | -15% | 1.61 |
| COc1cccc(C2=C[C@@H](c3ccc(Cl)cc3Cl)N3N=CNC3=N2)c1 | -3% | 0.28 |
| CC1CCC(N(C[C@H]2CCCO2)C(=O)CC2(O)CCCC2)CC1 (stereo partly drawn) | -4% | 0.58 |
| O=C(Cc1csc(NC(=O)c2ccco2)n1)NC(c1ccccc1)c1ccccc1 | -7% | 1.29 |
| c1ccc2c(c1)CC(NCc1ccc3c(c1)OCO3)C2 | -11% | 2.13 |
| CN(Cc1ncnn1Cc1c(F)cccc1Cl)[C@H]1CCS(=O)(=O)C1 | -16% | 3.05 |
| CNC[C@@H]1C[C@H](F)CN1c1nc(C)c(C)s1 | -6% | 0.63 |

| Compound | % Inhibition | Z score |
| --- | --- | --- |
| C[C@@H](NC(=O)c1cc(-c2ccccc2)n[nH]1)c1nnc2ccccn12 | 5% | -0.68 |
| CC(CNC(C)c1cnn(C(C)C)c1)c1ccsc1 (stereo not drawn) | -10% | 1.81 |
| O=C(c1ccc(F)c(Cl)c1)N1CCC(n2cnnc2C2CC2)CC1 | -9% | 1.63 |
| Cc1cc(C(=O)N(Cc2ccccc2)CC2(O)CCCC2)[nH]n1 | 2% | -0.27 |
| CCOC(=O)N1CCN(C(=O)CCc2n[nH]c(-c3ccc(OCCOC)c(OC)c3)nc2=O)CC1 | -13% | 1.36 |
| O=S(=O)(NC1(c2ccccc2F)CC1)c1cccnc1 | -6% | 0.75 |
| Cc1nc(C)n(CCCNC(=O)Nc2ccc3c(c2)N(C)C(=O)[C@H](C)O3)n1 | -5% | 0.5 |
| Cc1c(NC(=O)COC(=O)Cc2ccc(Cl)cc2)c(=O)n(-c2ccccc2)n1C | -5% | 0.89 |
| CC(C)(C)c1cc(NC(=O)CCCc2ccccc2)n([C@H]2CCS(=O)(=O)C2)n1 | -2% | 0.38 |
| CCN(Cc1nccn1C)C(=O)c1cc(C(C)(C)C)nc(=O)[nH]1 | 13% | -1.72 |
| NC(=O)C1CN(C(=O)CC2CC3CCC2C3)CCN1C1CC1 (stereo not drawn) | -5% | 0.78 |
| CCc1ncc(NC(=O)N2CCN(CC(F)(F)F)C[C@H](C)C2)cn1 | 2% | -0.35 |
| O=C(c1cc2cc(F)ccc2[nH]1)N1CCC(CO)(CCCc2ccccc2)CC1 | -9% | 1.08 |
| O=C(NCCCc1ccccc1)[C@@]1(CCO)CC12CCOCC2 | 10% | -2.01 |
| CNC(=O)c1[nH]nc2c1CN(Cc1coc(-c3ccccc3)n1)CC2 | -13% | 2.08 |
| CC1CN(Cc2nc(-c3cccs3)no2)C(C)CO1 (stereo not drawn) | -5% | 0.94 |
| CC(C)c1cc(C(=O)N2CCN(c3cccc(Cl)c3)CC2)nc2ccnn12 | -4% | 0.68 |
| O=C(NCc1ccc2occc2c1)NC1CCOC2(CCS(=O)(=O)C2)C1 (stereo not drawn) | -7% | 0.87 |
| Cn1cc(-c2ccc(F)cc2)c2nc[nH]c(=O)c21 | 36% | -4.12 |
| Cc1nc(C2(NCC(=O)Nc3ccc(F)cc3F)CCC2)no1 | -14% | 1.79 |
| CC(=C(F)C(=O)N(CCCO)C(C)C)C1CC1 | 4% | -0.65 |

| Compound | % Inhibition | Z score |
| --- | --- | --- |
| Cc1c(C(=O)N2CCCCCC2)sc2ncc(C(=O)N3CCCCCC3)cc12 | 3% | -0.57 |
| CCN(Cc1cnn(CC)c1)C[C@]1(O)CCCN2CCCC[C@@H]21 | -13% | 1.76 |
| Cc1nccn1Cc1ccccc1NC(=O)[C@@H](N)Cc1c[nH]c2ccccc12 | -9% | 1.04 |
| COCCN1C[C@@H](Cc2cc(C)cc(C)n2)CC1=O | -12% | 1.27 |
| Cc1ncsc1CNC(C)CCC1CC1(Cl)Cl (stereo not drawn) | -10% | 1.83 |
| Cn1cc(CNc2ccc3[nH]c(=O)[nH]c3c2)c(C(C)(C)C)n1 | -5% | 0.71 |
| c1csc(OC2CCN(C3CCNCC3)CC2)n1 | -8% | 0.99 |
| CC[C@@H]1NC(=O)N(c2cccc(NC(=O)c3nccnc3N)c2)C1=O | -5% | 0.84 |
| COCCn1ccnc1CN(Cc1ccsc1)C1CCCCC1 | -20% | 1.9 |
| NC(=O)CN1CCCN(c2ncc(Cl)c(N3CCCN(CC(N)=O)CC3)n2)CC1 | -27% | 3.18 |
| CC(C)(C)c1ccncc1CNC(=O)N1CC[C@@H]2OCC(=O)N[C@H]2C1 | 20% | -2.59 |
| CC(C(=O)NCc1ccco1)N1CCCCC1Cn1cncn1 (stereo not drawn) | -17% | 1.43 |
| Cc1cc(C(=O)NS(=O)(=O)CCC2CCOCC2)nn1C(C)C | -8% | 1.4 |
| C[C@H]1CN(CCC(=O)O)Cc2cc(Cl)ccc2O1 | -2% | 0.25 |
| Cc1occc1C(=O)Nc1cc(C2CC2)nn1[C@H]1CCS(=O)(=O)C1 | -11% | 1.12 |
| COc1cccc(CN(Cc2nc(C(=O)NCCN3CCOCC3)co2)[C@@H](C)C(C)C)c1 | -13% | 1.32 |
| O=C(NCc1nnc2n1CC[C@H](C(F)(F)F)C2)c1ccc(=O)[nH]c1 | 12% | -1.54 |
| CC(NC(=O)C(C)N1C(C)CCC1C)c1ccc(-n2ccnn2)cc1 (stereo not drawn) | -1% | 0.13 |
| CCc1csc(CNC(=O)c2cncc(O)n2)n1 | -21% | 2.02 |
| CCO[C@H]1COC[C@@H]1Nc1nc2ccc(Cl)cc2s1 | 7% | -0.97 |
| Cc1noc(C)c1CNC(=O)c1cn(CC2(O)CCN(Cc3ccccc3)CC2)nn1 | 28% | -3.14 |

| Compound | % Inhibition | Z score |
| --- | --- | --- |
| CCN(Cc1cnsn1)[C@@H](C)c1cccc(OC)c1 | -8% | 1.04 |
| Cc1ccc(S(=O)(=O)c2c(NS(=O)(=O)c3ccccc3)n(CCc3ccccc3)c3nc4ccccc4nc23)cc1 | 99% | -11.17 |
| CCN1CCN(C(=O)[C@@H](NC(=O)c2cc3n(n2)CCCN(Cc2ccccc2)C3=O)C(C)C)CC1 | -8% | 0.83 |
| Cn1cc([C@H]2CN(Cc3cc(F)ccc3F)C[C@H]2CC(=O)O)nn1 | -25% | 2.17 |
| CCn1cnc2c1CN(C(=O)c1ccco1)CC2 | -11% | 1.23 |
| C[C@@H](CNCc1nnc2ccccn12)c1cccc(Cl)c1 | -8% | 1.01 |
| CNc1ncccc1C(=O)N1CCN2C(=O)OC[C@H]2C1 | -7% | 1.46 |
| CCN(CC1CCN(c2ccccn2)CC1)C1CC(C)OC1=O (stereo not drawn) | 4% | -0.33 |
| CC(C)NC(=O)CN(C)CC(=O)NC[C@H](O)c1c(Cl)cccc1Cl | -4% | 0.46 |
| O=C(c1nccc2ccccc12)N1CCc2ccccc21 | -4% | 0.46 |
| O=c1cc(C(F)(F)F)nc(-n2[nH]c3c(c2=O)CCCC3)[nH]1 | 30% | -3.81 |
| C[C@H](NCc1ncc(Br)s1)c1ccc(C#N)cc1 | -9% | 1.3 |
| O=C(CCn1cncn1)N1CCC[C@@]2(CCC(=O)N(Cc3ccccn3)C2)C1 | -2% | 0.19 |
| Cc1nn(-c2ccccc2)c(Oc2ccc(F)cc2)c1CN(C[C@H](O)COC(C)(C)C)C1CC1 | 4% | -0.61 |
| O=C(C[C@@H]1NC(=O)N(CCc2ccccc2)C1=O)NCc1nc2ccccc2[nH]1 | -7% | 0.91 |
| COc1ccc(CCN[C@H]2CCCS(=O)(=O)C2)cc1OC | -8% | 1.18 |
| O=S1(=O)NC(CN2CCC[C@H](CN3CCCCCC3)C2)=Nc2ccccc21 | -7% | 0.95 |
| COc1cccc(CNC[C@H](O)COc2cccc3ccccc23)c1 | -4% | 0.68 |
| COC1(C)CC(NS(C)(=O)=O)C1(C)C (stereo not drawn) | -12% | 2.18 |
| CNC(=NCc1nc(C2CC2)cs1)NCc1ccco1 | -8% | 1.34 |
| COc1ccc2[nH]cc([C@H](CC(=O)Nc3ccccc3)c3ccc(Cl)c(C(F)(F)F)c3)c2c1 | -9% | 1.09 |
